# Experimental data reported in the supplement of paper PMC8728848.
# Some of the results follow.
# B1: SAG3 (Toxoplasma gondii), Q9BJ39 (protein)
# chain: MQLWRRRAAGPASLGRQSLPLGCFFAAFGLCVLSAILGTGERGLFVAAGNSRRKITYFGTLTQKAPNWYRCSSTRAKEEVVGHVTLNKEHPDMTIECVDDGLGGEFLPLEGARSSYPRVCHIDAKDQDDCERNRGFLTDYIPGAKQYWYKIEKVEQNGEQSVLYKFTVPWILLPPAKQRYKVGCRYPNHEYCFVEVTVEPTPPMVEGKRVTCGYSESGPVNLEVDLSKNANFIEIRCGEQHHPQPSTYTLQYCSGDSVDPQKCSPQSLTNIFYDYSSSWWKGKLNGPDGATLTIPPGGFPEEDKSFLVGCSLTVDGPPFCNVKVRVAGNPRKWERGGGGHPGSGGLQPGTDGETQAGTGSSAGASSRMASVALAFLLGLLVHVAA
# Columns and labels:
# Test in all cases: glycan array binding signal (z-score within array); higher = stronger binding
# Settings in all cases: glycan notation: IUPAC condensed, linker removed
# [1] = biological target: GlcNAc(a1-4)Gal(b1-4)GalNAc
# Method in brief: (§1)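 Glycan array binding is given as a within-array Z-score, which can be read as non-binding when negative. The arrays, 3228 of them, came from the Consortium for Functional Glycomics database and were retained only where the protein sequence was available. Z-scores were averaged across arrays of the same protein sequence at different concentrations or buffers and across linkers.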
# [2] = biological target: GlcNAc(a1-4)Gal(b1-4)GlcNAc
# Method in brief: as §1
# [3] = biological target: GlcNAc(a1-4)Gal(b1-4)GlcNAc(b1-3)Gal(b1-4)Glc
# Method in brief: as §1
# [4] = biological target: GlcNAc(a1-4)Gal(b1-4)GlcNAc(b1-3)Gal(b1-4)GlcNAc
# Method in brief: as §1
# [5] = biological target: GlcNAc(a1-4)Gal(b1-4)GlcNAc(b1-3)Gal(b1-4)GlcNAc(b1-3)Gal(b1-4)GlcNAc
# Method in brief: as §1
# [6] = biological target: GlcNAc(a1-4)Gal(b1-4)GlcNAc(b1-3)Gal(b1-4)[Fuc(a1-3)]GlcNAc(b1-3)Gal(b1-4)[Fuc(a1-3)]GlcNAc
# Method in brief: as §1
# [7] = biological target: GlcNAc(a1-6)Gal(b1-4)GlcNAc
# Method in brief: as §1
# [8] = biological target: GlcNAc(b1-2)Gal(b1-3)GalNAc
# Method in brief: as §1
# [9] = biological target: GlcNAc(b1-2)Man(a1-3)[GlcNAc(b1-2)Man(a1-6)]Man(b1-4)GlcNAc(b1-4)GlcNAc
# Method in brief: as §1
# [10] = biological target: GlcNAc(b1-2)Man(a1-3)[GlcNAc(b1-2)Man(a1-6)]Man(b1-4)GlcNAc(b1-4)[Fuc(a1-6)]GlcNAc
# Method in brief: as §1
# [11] = biological target: GlcNAc(b1-2)[GlcNAc(b1-4)]Man(a1-3)[GlcNAc(b1-2)Man(a1-6)]Man(b1-4)GlcNAc(b1-4)GlcNAc
# Method in brief: as §1
# GlcNAc(b1-3)Gal = biological target: GlcNAc(b1-3)Gal
# Method in brief: as §1
# [12] = biological target: GlcNAc(b1-3)Gal(b1-3)GalNAc
# Method in brief: as §1
# GlcNAc(b1-3)Gal(b1-4)Glc = biological target: GlcNAc(b1-3)Gal(b1-4)Glc
# Method in brief: as §1
# [13] = biological target: GlcNAc(b1-3)Gal(b1-4)GlcNAc
# Method in brief: as §1
# [14] = biological target: GlcNAc(b1-3)Gal(b1-4)GlcNAc(b1-3)Gal(b1-4)GlcNAc
# Method in brief: as §1
# GlcNAc(b1-3)GalNAc = biological target: GlcNAc(b1-3)GalNAc
# Method in brief: as §1
# GlcNAc(b1-3)Man = biological target: GlcNAc(b1-3)Man
# Method in brief: as §1
# [15] = biological target: GlcNAc(b1-3)[GlcNAc(b1-4)][GlcNAc(b1-6)]GlcNAc
# Method in brief: as §1
# [16] = biological target: GlcNAc(b1-3)[GlcNAc(b1-6)]Gal(b1-4)GlcNAc
# Method in brief: as §1
# [17] = biological target: GlcNAc(b1-3)[GlcNAc(b1-6)]GalNAc
# Method in brief: as §1
# [18] = biological target: GlcNAc(b1-4)Gal(b1-4)GlcNAc
# Method in brief: as §1
# GlcNAc(b1-4)GlcNAc = biological target: GlcNAc(b1-4)GlcNAc
# Method in brief: as §1
# [19] = biological target: GlcNAc(b1-4)GlcNAc(b1-4)GlcNAc
# Method in brief: as §1
# [20] = biological target: GlcNAc(b1-4)GlcNAc(b1-4)GlcNAc(b1-4)GlcNAc(b1-4)GlcNAc
# Method in brief: as §1
# [21] = biological target: GlcNAc(b1-4)GlcNAc(b1-4)GlcNAc(b1-4)GlcNAc(b1-4)GlcNAc(b1-4)GlcNAc
# Method in brief: as §1
# [22] = biological target: GlcNAc(b1-4)[GlcNAc(b1-6)]GalNAc
# Method in brief: as §1
# [23] = biological target: GlcNAc(b1-6)Gal(b1-4)GlcNAc
# Method in brief: as §1
# GlcNAc(b1-6)GalNAc = biological target: GlcNAc(b1-6)GalNAc
# Method in brief: as §1
# GlcNAc3Prop(b1-4)GlcNAc = biological target: GlcNAc3Prop(b1-4)GlcNAc
# Method in brief: as §1
# [24] = biological target: GlcNAc6S(b1-3)Gal(b1-4)GlcNAc
# Method in brief: as §1
# Kdn(a2-3)Gal(b1-3)GalNAc = biological target: Kdn(a2-3)Gal(b1-3)GalNAc
# Method in brief: as §1
# Kdn(a2-3)Gal(b1-3)GlcNAc = biological target: Kdn(a2-3)Gal(b1-3)GlcNAc
# Method in brief: as §1
# Kdn(a2-3)Gal(b1-4)Glc = biological target: Kdn(a2-3)Gal(b1-4)Glc
# Method in brief: as §1
# Kdn(a2-3)Gal(b1-4)GlcNAc = biological target: Kdn(a2-3)Gal(b1-4)GlcNAc
# Method in brief: as §1
# [25] = biological target: Kdn(a2-3)Gal(b1-4)[Fuc(a1-3)]GlcNAc
# Method in brief: as §1
# Kdn(a2-6)Gal(b1-4)GlcNAc = biological target: Kdn(a2-6)Gal(b1-4)GlcNAc
# Method in brief: as §1
# [26] = biological target: Man(a1-2)Man(a1-2)Man(a1-3)Man
# Method in brief: as §1
# [27] = biological target: Man(a1-2)Man(a1-2)Man(a1-6)[Man(a1-3)]Man
# Method in brief: as §1
# Man(a1-2)Man(a1-3)Man = biological target: Man(a1-2)Man(a1-3)Man
# Method in brief: as §1
# [28] = biological target: Man(a1-2)Man(a1-3)[Man(a1-2)Man(a1-6)]Man
# Method in brief: as §1
# [29] = biological target: Man(a1-2)Man(a1-3)[Man(a1-2)Man(a1-6)]Man(a1-6)[Man(a1-2)Man(a1-2)Man(a1-3)]Man
# Method in brief: as §1
# [30] = biological target: Man(a1-2)Man(a1-3)[Man(a1-2)Man(a1-6)]Man(a1-6)[Man(a1-2)Man(a1-2)Man(a1-3)]Man(b1-4)GlcNAc(b1-4)GlcNAc
# Method in brief: as §1
# [31] = biological target: Man(a1-2)Man(a1-3)[Man(a1-6)]Man(a1-6)[Man(a1-2)Man(a1-3)]Man(b1-4)GlcNAc(b1-4)GlcNAc
# Method in brief: as §1
# [32] = biological target: Man(a1-2)Man(a1-6)[Man(a1-3)]Man(a1-6)[Man(a1-2)Man(a1-2)Man(a1-3)]Man
# Method in brief: as §1
binder,measurement,setting,value
B1,glycan array binding signal (z-score),[1],0.196
same,glycan array binding signal (z-score),[2],0.067
same,glycan array binding signal (z-score),[3],-0.133
same,glycan array binding signal (z-score),[4],-0.116
same,glycan array binding signal (z-score),[5],0.115
same,glycan array binding signal (z-score),[6],-0.01
same,glycan array binding signal (z-score),[7],-0.311
same,glycan array binding signal (z-score),[8],-0.576
same,glycan array binding signal (z-score),[9],-0.352
same,glycan array binding signal (z-score),[10],0.719
same,glycan array binding signal (z-score),[11],0.578
same,glycan array binding signal (z-score),GlcNAc(b1-3)Gal,-0.293
same,glycan array binding signal (z-score),[12],-0.112
same,glycan array binding signal (z-score),GlcNAc(b1-3)Gal(b1-4)Glc,-0.058
same,glycan array binding signal (z-score),[13],-0.366
same,glycan array binding signal (z-score),[14],-0.657
same,glycan array binding signal (z-score),GlcNAc(b1-3)GalNAc,-0.44
same,glycan array binding signal (z-score),GlcNAc(b1-3)Man,0.13
same,glycan array binding signal (z-score),[15],-0.37
same,glycan array binding signal (z-score),[16],-0.317
same,glycan array binding signal (z-score),[17],-0.039
same,glycan array binding signal (z-score),[18],-0.247
same,glycan array binding signal (z-score),GlcNAc(b1-4)GlcNAc,-0.074
same,glycan array binding signal (z-score),[19],-0.526
same,glycan array binding signal (z-score),[20],-0.599
same,glycan array binding signal (z-score),[21],0.148
same,glycan array binding signal (z-score),[22],-0.328
same,glycan array binding signal (z-score),[23],0.257
same,glycan array binding signal (z-score),GlcNAc(b1-6)GalNAc,-0.294
same,glycan array binding signal (z-score),GlcNAc3Prop(b1-4)GlcNAc,-0.494
same,glycan array binding signal (z-score),[24],-0.382
same,glycan array binding signal (z-score),Kdn(a2-3)Gal(b1-3)GalNAc,0.108
same,glycan array binding signal (z-score),Kdn(a2-3)Gal(b1-3)GlcNAc,-0.331
same,glycan array binding signal (z-score),Kdn(a2-3)Gal(b1-4)Glc,0.107
same,glycan array binding signal (z-score),Kdn(a2-3)Gal(b1-4)GlcNAc,0.101
same,glycan array binding signal (z-score),[25],0.498
same,glycan array binding signal (z-score),Kdn(a2-6)Gal(b1-4)GlcNAc,-0.489
same,glycan array binding signal (z-score),[26],-0.156
same,glycan array binding signal (z-score),[27],0.913
same,glycan array binding signal (z-score),Man(a1-2)Man(a1-3)Man,-0.077
same,glycan array binding signal (z-score),[28],-0.088
same,glycan array binding signal (z-score),[29],-0.065
same,glycan array binding signal (z-score),[30],-0.609
same,glycan array binding signal (z-score),[31],-0.252
same,glycan array binding signal (z-score),[32],-0.113
